Test results: the supplement of paper PMC10126150
Values marked as one replicate rest on one cluster of the flow cell; about a third of the high ones do not repeat.

Tested on: ATP
Test: switch fluorescence ratio, 500 uM ATP over buffer (Cy3 cluster intensity, sum of 5 cycles each) (fold (ratio)); higher = stronger signal-on switching upon ATP binding; sequences stand for … in TCGTCGGCAGCGTCAGATGTGTATAAGAGACAGTTTTTTTTTTTTTTTTTTTTTTTTT…TC
Conditions: aptamer strand: ATP DNA aptamer (quencher-CACCTGGGGGAGTATTGCGGAGGAAGG + anchor), 100 nM annealed; ATP concentration: 500 uM; one replicate
Method in brief: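 Values give the fluorescence ratio for each switch-domain sequence, averaged from per-cluster ratios of summed target-cycle to summed buffer-cycle Cy3 intensity. The Cy3-labelled switching-strand clusters sat on a modified Illumina MiSeq flow-cell, were annealed to 100 nM quencher-labelled ATP aptamer, and were imaged in selection buffer, then after 15 min with 500 uM ATP at 22 °C. Five cycles ran with NaOH stripping and re-annealing between them, and clusters outside 100-1000 RFU were excluded.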
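Further: ATP exposure 15 min at 22 °C before imaging.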

Sequence | switch fluorescence ratio
CCGAACGGGG | 1.66
CGGAGATAGC | 1.03
ACAGCAATCT | 2.88
AACAGACCGT | 1.04
TCAGCTGAGG | 1.04
GCATCAGCTC | 1.02
ATAAGCGCGC | 1.03
GTGGCAGGT | 0.994
ACTCATCTTT | 1.03
AAGGTCTCTG | 1
TCAAGAAGAC | 1.16
ATAGCCAAAC | 1.25
CATTGACTAA | 0.996
GTAGAGGAGC | 0.984
GCAATGCGGC | 2.43
CGGATGGTAA | 0.972
GGCTGTGGCT | 0.959
CCATAGACAG | 1.02
CACAAAGTAA | 1.04
GGGAAATAAT | 1.06
AATGTCCGCT | 1.41
TAACGAGGTT | 1.02
AGCTAAACTT | 1.05

Sequence | switch fluorescence ratio
GCATGATTTT | 1.01
TTTAGTGTTC | 0.997
TATGAAGGG | 0.963
ACGCCCTCGT | 1.01
GAAGGCATG | 0.973
TAAGGGACCG | 1.16
TTCGTATTTG | 1
ATCTTGGGT | 1.01
TGTGTTC | 1.03
AGCGAGAATG | 1
ACATGTGTTA | 1.01
TGAGATATAA | 1.03
TCTCTTGCTT | 1.2
TGCCAATTTC | 1.03
TCGGAGTCCC | 1.1
GCATTGTAAA | 0.935
AACGGGCGGA | 1.04
GCTAGCAGGG | 1.01
AATTTGGGCC | 0.975
CGCAGTTCGG | 1.15
ATGTTCGCGT | 0.966
CGCGTCCTAA | 0.999
TCTGTCTTG | 1.01

Sequence | switch fluorescence ratio
TAAAATTTCT | 1.01
ATGGTAGTTT | 0.975
TCGTGACTCT | 0.958
CAGTACTAGC | 1
TGATTAAGC | 0.996
TCTATACCTC | 1.05
ACCATGATAT | 0.98
TTCGTCAGGG | 1.02
AGGTTCGAGC | 1.07
TCATATAAAT | 0.961
GTGAGCTCTC | 1.01
GCAGTGAGTC | 1.03
CAAAAGAGGA | 1
ACCAGGAAAC | 0.988
AAGCATTGTG | 0.992
TCCGGCCTTT | 1.05
ATCAGTAAGC | 1.07
TTTTACTTTG | 0.991
GCTGTAGATC | 1.04
GTCGGAACCG | 0.938
CTCCACTTTA | 1.16
GCACGGCTGT | 1.06
CAGCCTATTA | 0.995

Sequence | switch fluorescence ratio
GTTTATGGCA | 0.974
TGATAGCCCG | 1.07
AACGTGCGCC | 1.03
TCCCCCTGCT | 1.15
AATCGGCAGT | 1.01
CAATGTCGCT | 0.982
CAGCAACATT | 1.23
ACCATGTATA | 0.961
CTTTTGTACC | 1.01
TAGTAAGTTC | 0.988
TGAGCCAAAC | 1.05
CATAACATTT | 0.976
CAATGTAGG | 0.981
TCGTTCTTGA | 1.03
AAGTCAGAGG | 1.05
GGCCCTGAGT | 1.02
TGAACAGTTA | 0.985
CCCATGGCCT | 1.1
GGGTACTTTC | 1.01
CAGTATGTCT | 0.956
AACAGGATGT | 0.978
TTAGGATGAC | 1.01
GAGAGAGTAT | 0.96

Sequence | switch fluorescence ratio
TTTGAGGAAA | 1.02
TGGGACAGGT | 1.04
ACTGTGAGCC | 0.984
AAAGTGCACG | 1.03
GCGGATCGTT | 0.999
TCTTTGTTCG | 0.994
AAAAATTT | 1.01
GCGGTTTGCG | 1.05
GAAACTGTGA | 1.05
TGGTATTCTA | 0.992
AGGACATTCC | 1.67
TTAGTATGAG | 1.05
CATTTCGGCC | 1.01
TAAACCGTTC | 1.1
CCTGAAGTAT | 1
CGTGGTAGAA | 1.02
TCATCATCTA | 1.07
TAGACTGCG | 0.978
GATCGGTCAC | 1.03
TAGCAAAGAG | 1.07
GAGTAAGGG | 0.935
GGGCCCTGAT | 0.996
AGCGGTTATG | 0.963

Sequence | switch fluorescence ratio
TATTTCTTAA | 0.988
CATTGTATAC | 1.17
CAGGACACTT | 1.02
ACAGGTTGAG | 1.03
GAATCTAACA | 0.976
GTTCAGTTAG | 0.96
AATTGCAGAT | 1.01
AAGCGCGTAT | 1.45
TACTCTATTG | 1.07
GGGAGCGCAG | 0.939
CCTACGGGGA | 1.36
CGTTTATAGC | 1.01
ATGTCATTAC | 1.21
AGCGACTTTC | 1.01
AACAGATGAT | 1.03
AGCCAGCCGA | 0.972
TCCTGGAAAA | 1.03
AATAACACCC | 1.1
CAGTTTCACG | 1.01
GTCTTCGCTC | 1.02
GGGAGGCCAA | 0.949
CATTAGATGG | 1.04
AAAACTAGCA | 1.02

Sequence | switch fluorescence ratio
CCCCACAGCC | 1.3
GCTTCAGGTG | 3.82
AGTTATTAAG | 1.16
AGAGTGGTTC | 1.01
GCGAATCTTG | 1
TTACCGGAAG | 1.05
CTGATGTCGG | 0.977
GTAGTGTAGG | 1.03
TTGACACATC | 1.02
AGGCAGCGAC | 0.965
TTCTTCGTGC | 1.06
GAAGCAAGGT | 1.63
GACCAAGATC | 1.16
CCAAGCGACC | 2.58
GCGCGCGTGG | 1.03
GACCCGTGAG | 0.991
ATTTAGAAG | 1.03
AGATAGGATA | 0.995
CAGACTCGTG | 1.04
